The list shows a part of the results. At the low end of the ranking the order means little.
Molecular target: GST-SBP-SLBP (stem-loop binding protein) (UniProt Q14493)
Test: targeted RNA Bind-n-Seq;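 note: DESeq read counts versus GST-SBP nonspecific binding control pulldown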
Details: RBNS binding buffer: 25 mM Tris pH 7.5, 150 mM KCl, 3 mM MgCl2, 0.1% Tween, 0.5 mg/mL BSA, 1 mM DTT; 27 nM protein, 750 pM RNA pool; temperature not stated; high values mean tight binding

Row | Sequence | binding signal (log2 fold change)
1 | GGUCACGUCUCAAUCAACUCUAUCUCAGGAGUUUACUCCUGCAAAUUCAACAGCUCGCAGUCAAG | 0.00804
2 | GGUCACGUCUCAAUCAACUCUACUCCCAGGGAAAUCCCUGGUAUACUCAACAGCUCGCAGUCAAG | -0.0809
3 | GGUCACGUCUCAAUCAACUCAACUCCCAGGGAAAACCCUGGUAAUCUCAACAGCUCGCAGUCAAG | -0.0244
4 | GGUCACGUCUCAAUCAACUCUUCUGAGGGGGGGAAAACCCCUUUACCCUCUACAUCAACAGCUCGCAGUCAAG | -0.000555
5 | GGUCACGUCUCAAUCAACUCGUUUUCAGGAGUUUUCUCCUGCUAUCUCAACAGCUCGCAGUCAAG | 0.0977
6 | GGUCACGUCUCAAUCAACUCAAAAGAGGGGGGGAAAACCCCUUUACCCUCAUUCUCAACAGCUCGCAGUCAAG | -0.145
7 | GGUCACGUCUCAAUCAACUCAGUUUCAGGAGUUUACUCCUGCUAAUUCAACAGCUCGCAGUCAAG | 0.253
8 | GGUCACGUCUCAAUCAACUCUUUCCCCAGGGAAAUCCCUGGCAUUCUCAACAGCUCGCAGUCAAG | 0.145
9 | GGUCACGUCUCAAUCAACUCUUCCUCAGGAGUUUGCUCCUGCAUAUUCAACAGCUCGCAGUCAAG | -0.00415
10 | GGUCACGUCUCAAUCAACUCCCACGAGGGGGGGAAAACCCCUUUACCCUCAAAUUCAACAGCUCGCAGUCAAG | 0.135
11 | GGUCACGUCUCAAUCAACUCAAUGGAGGGGGGGAAAACCCCUUUACCCUCAUCAUCAACAGCUCGCAGUCAAG | -0.435
12 | GGUCACGUCUCAAUCAACUCAUUUCCAGGAGUUUGCUCCUGUAAUCUCAACAGCUCGCAGUCAAG | 0.135
13 | GGUCACGUCUCAAUCAACUCAUCCUCAGGAGUUUGCUCCUGUAAUCUCAACAGCUCGCAGUCAAG | 0.122
14 | GGUCACGUCUCAAUCAACUCUUUAGAGGGGGGGAAAACCCCUUUGCCCUCACCAUCAACAGCUCGCAGUCAAG | 0.263
15 | GGUCACGUCUCAAUCAACUCUUUCGAGGGGGGGAAAACCCCUUUACCCUCAACAUCAACAGCUCGCAGUCAAG | 0.235
16 | GGUCACGUCUCAAUCAACUCAAGUCCCAGGGAAAGCCCUGGCUAAUUCAACAGCUCGCAGUCAAG | -0.111
17 | GGUCACGUCUCAAUCAACUCUUCGCCCAGGGAAAUCCCUGGUUAUUUCAACAGCUCGCAGUCAAG | 0.237
18 | GGUCACGUCUCAAUCAACUCUACUUCCAGGGAAAGCCCUGGUAAACUCAACAGCUCGCAGUCAAG | -0.202
19 | GGUCACGUCUCAAUCAACUCACACGAGGGGGGGAAAACCCCUUUACCCUCUAAAUCAACAGCUCGCAGUCAAG | -0.0824
20 | GGUCACGUCUCAAUCAACUCUAAAGAGGGGGGGAAAACCCCUUUACCCUCCAAAUCAACAGCUCGCAGUCAAG | -0.897
21 | GGUCACGUCUCAAUCAACUCAUGUCCAGGAGUUUACUCCUGUAAUUUCAACAGCUCGCAGUCAAG | 0.103
22 | GGUCACGUCUCAAUCAACUCUACUUCCAGGGAAACCCCUGGCAAAUUCAACAGCUCGCAGUCAAG | 0.0813
23 | GGUCACGUCUCAAUCAACUCAGUCUCCAGGGAAACCCCUGGCAUAUUCAACAGCUCGCAGUCAAG | 0.15
24 | GGUCACGUCUCAAUCAACUCAACUUCCAGGGAAAGCCCUGGCAUUUUCAACAGCUCGCAGUCAAG | -0.199

Row | Sequence | binding signal (log2 fold change)
25 | GGUCACGUCUCAAUCAACUCUACUUCAGGAGUUUUCUCCUGCAUACUCAACAGCUCGCAGUCAAG | 0.131
26 | GGUCACGUCUCAAUCAACUCAUCCUCAGGAGUUUACUCCUGCUUUCUCAACAGCUCGCAGUCAAG | 0.105
27 | GGUCACGUCUCAAUCAACUCUUCUUCCAGGGAAAUCCCUGGCGUAUUCAACAGCUCGCAGUCAAG | -0.231
28 | GGUCACGUCUCAAUCAACUCAAUUUCCAGGGAAAUCCCUGGUUUACUCAACAGCUCGCAGUCAAG | 0.112
29 | GGUCACGUCUCAAUCAACUCAGUCUCCAGGGAAACCCCUGGCAUUCUCAACAGCUCGCAGUCAAG | -0.0883
30 | GGUCACGUCUCAAUCAACUCAUCGUCAGGAGUUUCCUCCUGCUUUUUCAACAGCUCGCAGUCAAG | 0.141
31 | GGUCACGUCUCAAUCAACUCCCUAGAGGGGGGGAAAACCCCUUUGCCCUCCAUGUCAACAGCUCGCAGUCAAG | -0.233
32 | GGUCACGUCUCAAUCAACUCAAUUCCCAGGGAAAACCCUGGUUUACUCAACAGCUCGCAGUCAAG | 0.194
33 | GGUCACGUCUCAAUCAACUCUUUUUCCAGGGAAAACCCUGGCUAUCUCAACAGCUCGCAGUCAAG | 0.0953
34 | GGUCACGUCUCAAUCAACUCUACUUCAGGAGUUUACUCCUGUUUAUUCAACAGCUCGCAGUCAAG | -0.0221
35 | GGUCACGUCUCAAUCAACUCAUCGCCCAGGGAAAGCCCUGGUUAAUUCAACAGCUCGCAGUCAAG | 0.329
36 | GGUCACGUCUCAAUCAACUCUACUCCCAGGGAAAUCCCUGGCUUACUCAACAGCUCGCAGUCAAG | 0.0296
37 | GGUCACGUCUCAAUCAACUCAUCGCCCAGGGAAACCCCUGGUUUUCUCAACAGCUCGCAGUCAAG | -0.0927
38 | GGUCACGUCUCAAUCAACUCAAUUCCAGGAGUUUUCUCCUGCAAAUUCAACAGCUCGCAGUCAAG | 0.0343
39 | GGUCACGUCUCAAUCAACUCCAUAGAGGGGGGGAAAACCCCUUUACCCUCACACUCAACAGCUCGCAGUCAAG | 0.698
40 | GGUCACGUCUCAAUCAACUCAAUCCCAGGAGUUUCCUCCUGCUAAUUCAACAGCUCGCAGUCAAG | 0.227
41 | GGUCACGUCUCAAUCAACUCACAAGAGGGGGGGAAAACCCCUUUGCCCUCCAACUCAACAGCUCGCAGUCAAG | 0.0823
42 | GGUCACGUCUCAAUCAACUCUAUCGAGGGGGGGAAAACCCCUUUACCCUCACUAUCAACAGCUCGCAGUCAAG | -0.148
43 | GGUCACGUCUCAAUCAACUCUAUCCCAGGAGUUUGCUCCUGCAUAUUCAACAGCUCGCAGUCAAG | 0.00267
44 | GGUCACGUCUCAAUCAACUCUUCGCCCAGGGAAAGCCCUGGUAAAUUCAACAGCUCGCAGUCAAG | -0.144
45 | GGUCACGUCUCAAUCAACUCAUUUCCCAGGGAAAGCCCUGGCAAUUUCAACAGCUCGCAGUCAAG | -0.0864
46 | GGUCACGUCUCAAUCAACUCUUUUUCAGGAGUUUCCUCCUGUAAUGUCAACAGCUCGCAGUCAAG | -0.0571
47 | GGUCACGUCUCAAUCAACUCAAUCUCAGGAGUUUACUCCUGCUAAUUCAACAGCUCGCAGUCAAG | -0.0611

— PMC5892938
